Reference: article PMC3217859
These are yes or no findings as the source states them, for the method shown. In cells and extracts the contact can be indirect. Tags and fused reporters may be left off the sequences shown.

Biological target: T1, HA-tagged Δ(70-116) striatin (human) (UniProt O43815)
T1 sequence: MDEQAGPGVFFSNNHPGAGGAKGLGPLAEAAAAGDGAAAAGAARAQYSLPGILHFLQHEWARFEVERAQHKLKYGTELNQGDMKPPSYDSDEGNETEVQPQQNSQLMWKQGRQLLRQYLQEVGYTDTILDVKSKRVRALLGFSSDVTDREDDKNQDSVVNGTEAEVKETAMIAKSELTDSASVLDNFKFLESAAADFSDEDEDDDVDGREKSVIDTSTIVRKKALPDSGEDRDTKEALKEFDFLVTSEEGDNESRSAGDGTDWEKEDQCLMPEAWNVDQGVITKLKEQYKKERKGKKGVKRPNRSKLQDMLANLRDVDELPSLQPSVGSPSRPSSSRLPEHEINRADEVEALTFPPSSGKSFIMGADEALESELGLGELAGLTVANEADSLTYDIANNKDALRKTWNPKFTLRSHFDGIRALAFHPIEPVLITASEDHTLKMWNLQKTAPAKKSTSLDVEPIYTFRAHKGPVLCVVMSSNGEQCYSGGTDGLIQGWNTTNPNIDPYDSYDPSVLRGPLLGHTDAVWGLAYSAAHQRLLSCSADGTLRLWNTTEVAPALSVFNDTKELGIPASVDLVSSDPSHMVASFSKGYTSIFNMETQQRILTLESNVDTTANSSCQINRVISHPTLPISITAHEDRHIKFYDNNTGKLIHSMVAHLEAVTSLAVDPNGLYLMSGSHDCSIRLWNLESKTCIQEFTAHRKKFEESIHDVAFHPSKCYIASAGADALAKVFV
Test: co-IP; anti-HA immunoprecipitates (12CA5 with protein A-Sepharose, or F7 anti-HA-agarose when probing for Mst3 or Mst4; 1.5 h, 4°C) of lysates (1% Nonidet P-40, 0.135 M NaCl, 10% glycerol, 20 mM Tris pH 8.0) of HEK293 cells transfected with HA-striatins; endogenous partners by immunoblot, partner/HA-striatin ratio by chemilumimager against wild type; 50 mM NaF and 100 nM okadaic acid in the lysis buffer in the phosphorylation experiments

B1: S/G2 nuclear autoantigen (SG2NA) (protein, UniProt Q13033 1-797)
chain: MDELAGGGGGGPGMAAPPRQQQGPGGNLGLSPGGNGAAGGGGPPASEGAGPAAGPELSRPQQYTIPGILHYIQHEWARFEMERAHWEVERAELQARIAFLQGERKGQENLKKDLVRRIKMLEYALKQERAKYHKLKYGTELNQGDLKMPTFESEETKDTEAPTAPQNSQLTWKQGRQLLRQYLQEVGYTDTILDVRSQRVRSLLGLSNSEPNGSVETKNLEQILNGGESPKQKGQEIKRSSGDVLETFNFLENADDSDEDEENDMIEGIPEGKDKHRMNKHKIGNEGLAADLTDDPDTEEALKEFDFLVTAEDGEGAGEARSSGDGTEWDKDDLSPTAEVWDVDQGLISKLKEQYKKERKGKKGVKRANRTKLYDMIADLGDDELPHIPSGIINQSRSASTRMTDHEGARAEEAEPITFPSGGGKSFIMGSDDVLLSVLGLGDLADLTVTNDADYSYDLPANKDAFRKTWNPKYTLRSHFDGVRALAFHPVEPVLVTASEDHTLKLWNLQKTVPAKKSASLDVEPIYTFRAHIGPVLSLAISSNGEQCFSGGIDATIQWWNMPSPSVDPYDTYEPNVLAGTLVGHTDAVWGLAYSGIKNQLLSCSADGTVRLWNPQEKLPCICTYNGDKKHGIPTSVDFIGCDPAHMVTSFNTGSAVIYDLETSQSLVILSSQVDSGLQSNNHINRVVSHPTLPVTITAHEDRHIKFFDNKTGKMIHSMVAHLDAVTSLAVDPNGIYLMSGSHDCSIRLWNLDSKTCVQEITAHRKKLDESIYDVAFHSSKAYIASAGADALAKVFV
B1 was tested. Which binding did it give?
The binding was “no binding”.
